Values marked as one replicate rest on one cluster of the flow cell; about a third of the high ones do not repeat.
Tested on: ATP
Assay: switch fluorescence ratio, 500 uM ATP over buffer (Cy3 cluster intensity, sum of 5 cycles each) (fold (ratio)); higher = stronger signal-on switching upon ATP binding; sequences stand for … in TCGTCGGCAGCGTCAGATGTGTATAAGAGACAGTTTTTTTTTTTTTTTTTTTTTTTTT…TC
Details: aptamer strand: ATP DNA aptamer (quencher-CACCTGGGGGAGTATTGCGGAGGAAGG + anchor), 100 nM annealed; ATP concentration: 500 uM; one replicate
Outline: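 Cy3-labelled switching-strand clusters on a modified Illumina MiSeq flow-cell were annealed to 100 nM quencher-labelled ATP aptamer, imaged in selection buffer, then imaged after 15 min with 500 uM ATP at 22 °C. Five buffer/ATP cycles ran, with NaOH stripping and re-annealing between them. The fluorescence ratio is summed target-cycle over summed buffer-cycle Cy3 intensity per cluster, averaged per switch-domain sequence. Clusters outside 100-1000 RFU were excluded.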
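Note: ATP exposure 15 min at 22 °C before imaging.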

Row | Sequence | switch fluorescence ratio
1 | TCGAGGGCGT | 0.973
2 | TCGAGTGCAG | 0.972
3 | TCGAGTTAGG | 0.995
4 | TCGATAAGGG | 0.988
5 | TCGATCGGTG | 0.986
6 | TCGATTAGTC | 0.962
7 | TCGATTATCA | 1.02
8 | TCGATTGTTG | 0.965
9 | TCGCAACTTG | 1.58
10 | TCGCACACGA | 1.7
11 | TCGCACGGTA | 1.05
12 | TCGCAGCATG | 1.64
13 | TCGCATAAGG | 1.28
14 | TCGCATAGGG | 1.25
15 | TCGCATATTT | 3.02
16 | TCGCATCAGG | 1.34
17 | TCGCATTGGC | 1.25
18 | TCGCCAGTGA | 1.01
19 | TCGCCGGATC | 1.05
20 | TCGCCGTTAG | 0.929
21 | TCGCCTAGTG | 1.04
22 | TCGCGACGAA | 1.04
23 | TCGCGCAACG | 0.995
24 | TCGCGCAGTC | 1.46
25 | TCGCGGAAGA | 1.03

Row | Sequence | switch fluorescence ratio
26 | TCGCGGAATC | 1.18
27 | TCGCGGGTGC | 1.14
28 | TCGCGTTGAA | 1.03
29 | TCGCTAAATA | 1.27
30 | TCGCTCAATC | 1.82
31 | TCGCTCAGGA | 1.03
32 | TCGCTCGGAT | 1.03
33 | TCGCTGAAGA | 0.995
34 | TCGCTGAGTA | 1.02
35 | TCGCTGGCGG | 0.994
36 | TCGCTGTACC | 1.88
37 | TCGCTTCGTG | 0.98
38 | TCGGAAGTTT | 0.978
39 | TCGGACCCT | 1.06
40 | TCGGACCTTG | 0.979
41 | TCGGAGCGTC | 1.6
42 | TCGGAGTTGT | 1.06
43 | TCGGATACT | 1.08
44 | TCGGATCGGT | 0.959
45 | TCGGATGTCT | 0.989
46 | TCGGCACCC | 1.02
47 | TCGGCCATTA | 0.985
48 | TCGGCGTGTT | 0.971
49 | TCGGCTCCT | 1.16
50 | TCGGGAATGT | 0.967

Row | Sequence | switch fluorescence ratio
51 | TCGGGACTGC | 1.05
52 | TCGGGAGGAA | 1.02
53 | TCGGGATCA | 0.983
54 | TCGGGATCTC | 1.52
55 | TCGGGGAACT | 1.04
56 | TCGGGGCCCT | 0.982
57 | TCGGGGGTA | 1
58 | TCGGGGTGAA | 1
59 | TCGGGTACAC | 0.986
60 | TCGGGTCTC | 0.987
61 | TCGGGTGAGG | 1.05
62 | TCGGGTTGCC | 0.992
63 | TCGGGTTTCA | 0.991
64 | TCGGTAACGG | 1.04
65 | TCGGTACGCT | 1.03
66 | TCGGTATGAT | 1.17
67 | TCGGTCAAAA | 0.987
68 | TCGGTCTTGT | 1.01
69 | TCGGTGGCGA | 1
70 | TCGGTGGTTA | 0.939
71 | TCGGTTTCC | 0.943
72 | TCGTAACTAC | 2.98
73 | TCGTAATTCA | 1.15
74 | TCGTACCAGG | 1.61
75 | TCGTACCGTA | 0.937

Row | Sequence | switch fluorescence ratio
76 | TCGTACTCGG | 1.01
77 | TCGTAGGCCG | 0.956
78 | TCGTAGTGTA | 1
79 | TCGTATAGGC | 1.04
80 | TCGTCACCTA | 1.04
81 | TCGTCCCATG | 1.11
82 | TCGTCCGTTA | 1.36
83 | TCGTCGTTCT | 0.997
84 | TCGTCTTGGT | 1
85 | TCGTGACTGG | 0.993
86 | TCGTGATCAA | 1.04
87 | TCGTGATCC | 1.01
88 | TCGTGCCCAG | 1
89 | TCGTGCTCGC | 0.963
90 | TCGTGGGATG | 1.12
91 | TCGTGGGCAT | 1.06
92 | TCGTGGGTTC | 0.956
93 | TCGTTAAAGG | 1.66
94 | TCGTTATAGG | 0.979
95 | TCGTTGGCT | 0.919
96 | TCGTTGGGCT | 1
97 | TCGTTGGGTT | 1.03
98 | TCGTTTTTAA | 0.998
99 | TCGTTTTTAG | 1.04
100 | TCTAAACCGC | 1.03

— the supplement of paper PMC10126150
